# In all, about 420,000 compounds went through this assay and about 50,000 (12%) were called active. The inconclusive results got no clear call from the source; some entries with a clear call stand among them for comparison. The call rests on the fitted dose curve; in most records, active means well fitted inhibition curve with a large enough effect; inconclusive means small, poorly fitted or top-dose-only effect; inactive means flat fitted curve, though single readings scatter. No potency is given beside an inconclusive call; the fits are too rough.
# Assay: qHTS for Inhibitors of human tyrosyl-DNA phosphodiesterase 1 (TDP1): qHTS in cells in presence of CPT; further: nearly all actives have a fitted effect of over 55% in size
# Conditions: chicken DT40 Tdp1-/-;hTDP1 cells + 20 nM CPT, ATP luminescence, 48 h; activity change, negative = growth inhibition: at 46.2 µM (top of the series) unless noted
# In short: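 Cell growth measured by CellTiter-Glo luminescence after a minimum 48 h, 37 C compound exposure with 20 nM CPT in Tdp1-knockout DT40 cells stably expressing hTDP1, seeded 400/well; qHTS titration format.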
# On the % scale 0 is the no-effect control and ±100 the full control effect; potency means the concentration at half of the fitted maximal effect; tags describe the fitted curve by direction and shape.
Structure (SMILES),Potency,"activity change, negative = growth inhibition"
CCOc1ncccc1C(=O)OCC(=O)N1c2ccccc2CC1C (stereo not given),inactive,
Cc1cc(C)cc(NC(=O)CN2CCCN(S(=O)(=O)c3ccc(Br)s3)CC2)c1,"inconclusive [inhibitor, single point]",
COc1ccc(-c2nc3sc(CCNC(=O)Cc4ccc(F)cc4)c(C)n3n2)cc1,active: 16.4 µM,
CCOC(=O)C(=CNc1cc(Cl)c(-c2ccco2)c(Cl)c1)C(=O)OCC,active: 18.4 µM,
CCOC(=O)C1(C)CCCCCN1C(=O)c1ccco1 (stereo not given),inactive,
CC1CCN(c2nc(-c3ccncc3)nc3ccccc23)CC1,"inconclusive [inhibitor, partial curve, poor fit]",
Cn1cccc1C(=O)OCC(=O)Nc1cc(C(C)(C)C)nn1-c1ccccc1,"inconclusive [inhibitor, single point]",
COc1cc2cc(C(c3nnnn3C3CCCC3)N3CCCCCC3)c(=O)[nH]c2cc1OC (stereo not given),"inconclusive [inhibitor, full curve]",
Oc1ccc(C[C@H]2CNC(=S)N2CC2CCCN2C[C@H](Cc2ccccc2)N2C[C@H](Cc3ccc(O)cc3)N(CC3CCCCC3)C2=S)cc1 (stereo not given in full),"inconclusive [inhibitor, single point]",
COc1ccc(CNCc2ccccc2[N+](=O)[O-])cc1OC,inactive,
COc1ccc(S(=O)(=O)Nc2ccc(F)c(F)c2)cc1C(=O)N1CCOCC1,inactive,
COc1ccc(C)cc1NC(=O)Nc1cc(C(=O)NCc2ccc(C)cc2)ccc1N1CCCC1,"inconclusive [inhibitor, single point]",
Cc1ccc(Cc2cnc(NC(=O)CN3CCOCC3)s2)cc1Cl,"inconclusive [inhibitor, full curve]",
Cn1nc(/C=C/c2ccccc2)ccc1=O,inactive,
Cc1cc2c(c(C)c1CCO)C(=O)[C@H](C)C2,inactive,
O=S(=O)(NCC(c1cccnc1)N1CCN(c2ccccc2F)CC1)c1cccs1 (stereo not given),active: 14.6 µM,
CCCn1nnc(NC(=O)c2cccc(OCC(C)C)c2)n1,"inconclusive [inhibitor, single point]",
Cc1ccc(S(=O)(=O)CC(=O)Nc2cccc(C)n2)cc1,,inconclusive: -30.2% [inhibitor]
CCN(CC(=O)Nc1ccc(NC(C)=O)cc1)C(=O)c1oc2c(ccc3ccccc32)c1C,"inconclusive [inhibitor, single point]",
CCOc1ccccc1OCCCCn1c(-c2ccc(Cl)cc2)nc2ccccc2c1=O,"inconclusive [inhibitor, single point]",
